In PubChem BioAssay AID360 (National Center for Advancing Translational Sciences (NCATS), 2006):
About 550 (1.1%) of roughly 48,000 compounds were called active. Not shown: some 4% with an inconclusive outcome. Rule as the data show it: active = potency below about 15 µM; inconclusive = mostly about 16 µM to 33 µM; inactive = weaker than that. The list shows a part of the results.

target: Lysosomal acid glucosylceramidase (Homo sapiens) (UniProt P04062); test: Glucocerebrosidase; details: purified enzyme, resorufin glucoside fluorescence (screen aimed at inhibitors), 20 min;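 also: the screen sought inhibitors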
Procedure, shortened: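 Normal human glucocerebrosidase (0.2 nM final) was assayed with resorufin β-D-glucopyranoside (30 uM final) in 50mM citric acid/KH2PO4, 10mM sodium taurocholate, 0.01% tween-20, pH 5.9. Compounds were titrated; fluorescence (Ex 548, Em 600) read after 20 min at RT.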
Potency is read from the fitted curve at half-maximal effect.

Sequence of UniProt P04062 (P04062 whole entry, looked up): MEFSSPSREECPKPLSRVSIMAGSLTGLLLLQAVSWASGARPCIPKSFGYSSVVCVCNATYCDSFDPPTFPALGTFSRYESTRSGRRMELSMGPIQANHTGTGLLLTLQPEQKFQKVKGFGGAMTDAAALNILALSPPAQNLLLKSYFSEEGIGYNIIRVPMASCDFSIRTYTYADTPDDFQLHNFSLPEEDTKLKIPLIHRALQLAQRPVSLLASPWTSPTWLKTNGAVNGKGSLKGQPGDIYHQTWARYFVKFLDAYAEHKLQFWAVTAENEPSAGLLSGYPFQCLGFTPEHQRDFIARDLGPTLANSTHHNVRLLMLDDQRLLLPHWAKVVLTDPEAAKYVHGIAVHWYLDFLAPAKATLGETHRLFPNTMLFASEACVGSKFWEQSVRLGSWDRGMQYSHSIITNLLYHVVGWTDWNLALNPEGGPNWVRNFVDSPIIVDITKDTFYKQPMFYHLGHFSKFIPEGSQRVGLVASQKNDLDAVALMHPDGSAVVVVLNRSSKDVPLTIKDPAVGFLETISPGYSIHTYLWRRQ

SMILES	Potency
O=C1CCCN1CCCn1cnc2c([nH]c3ccc(F)cc32)c1=O	inactive: > 76.9 µM
CCOc1ccc(CNC(=O)CCn2c(=O)oc3ccccc32)cc1	inactive: > 76.9 µM
CC(C)CCNC(=O)C(C)N(Cc1ccc(F)cc1)C(=O)c1ccc(CN2CCCCC2)o1 (stereo unspecified)	inactive: > 76.9 µM
COCCn1c(-c2ccc(OC)c(OC)c2)nc2ccccc21	inactive: > 76.9 µM
c1cnc(NCCNc2ncccn2)nc1	inactive: > 76.9 µM
Cn1nc(C(=O)N2CCOCC2)c2ccccc2c1=O	inactive: > 76.9 µM
O=C(CN1C(=O)C2CC=CCC2C1=O)NC1=NCCS1 (stereo unspecified)	inactive: > 76.9 µM
Cc1c(NC(=O)CN2C(=O)c3ccccc3S2(=O)=O)c(=O)n(-c2ccccc2)n1C	inactive: > 76.9 µM
COc1ccc2c(c1)-c1ccccc1S(=O)(=O)N2C(C)=O	inactive: > 76.9 µM
CCOC(=O)CC1(C)NC(=O)c2c(C)sc(C(=O)OCC)c2N1 (stereo unspecified)	inactive: > 76.9 µM
COc1cccc(C2=NC(C)(C)NC(c3ccccc3O)C2)c1 (stereo unspecified)	inactive: > 76.9 µM
CCOC(=O)N1CCN(C(=O)c2oc3ccc(S(=O)(=O)N4CC(C)CC(C)C4)cc3c2C)CC1 (stereo unspecified)	inactive: > 76.9 µM
O=C(O)COc1nsnc1N1CCOCC1	inactive: > 76.9 µM
COC(=O)c1ccccc1NC(=O)C(CCS(C)(=O)=O)NC(C)=O (stereo unspecified)	inactive: > 76.9 µM
CCCCCC(=O)Nc1ccc(N2CCN(C(=O)CCC)CC2)cc1	inactive: > 76.9 µM
CCc1ccccc1Nc1ccc(C(=O)O)cc1N	inactive: > 76.9 µM
COC(=O)c1oc2ccccc2c1NC(=O)CN1CCCC1	inactive: > 76.9 µM
O=C(CCCN1C(=O)c2ccccc2C1=O)NCc1cccnc1	inactive: > 76.9 µM
CCCCc1nc2ccccc2c(C(=O)O)c1C	inactive: > 76.9 µM
Cc1nonc1NC(=O)CSc1nc2cc(Cl)ccc2c2c1CCCC2	inactive: > 76.9 µM
O=C(Cc1ccccc1)N[C@H](c1ccccc1)P(=O)(O)CO	inactive: > 76.9 µM
CCCc1cc(=O)[nH]c(SCc2ccc(C#N)cc2)n1	inactive: > 76.9 µM
CCN1CCCC1CNC(=O)COc1cc(=O)n(C)c2ccccc12 (stereo unspecified)	inactive: > 76.9 µM

SMILES	Potency
Cc1ccc(-n2nnnc2SCC(=O)Nc2c(C)n(C)n(-c3ccccc3)c2=O)cc1	inactive: > 76.9 µM
Cc1nc(N2CCN(S(=O)(=O)c3ccc(F)cc3)CC2)c2c(C)c(C)sc2n1	inactive: > 76.9 µM
COc1cc2c(N3CCOCC3)cc(O)c(CC(=O)Nc3ccccc3)c2cc1OC	inactive: > 76.9 µM
Cc1cc(=O)[nH]c2c1c(=O)[nH]n2C1CC(C)N(C)CC1C (stereo unspecified)	inactive: > 76.9 µM
CC1(C)Cc2ccccc2-c2nnc(-c3ccc(O)cc3)n21	active: 8.36 µM
Cc1ccc(-c2nnc(SCC(=O)N3CCN(c4ccccc4)CC3)o2)cc1	inactive: > 76.9 µM
Nn1c(COc2ccccc2)nnc1SCC(=O)O	inactive: > 76.9 µM
O=C(O)C(Cc1ccccc1)n1cccc1 (stereo unspecified)	inactive: > 76.9 µM
Cc1ccc2cc(CN(Cc3ccc4c(c3)OCO4)Cc3nnnn3Cc3ccco3)c(=O)[nH]c2c1C	inactive: > 76.9 µM
Cc1ccc(N(C(=O)Cn2nnc(-c3ccc(C)o3)n2)C(C(=O)NC2CCCC2)c2ccco2)cc1 (stereo unspecified)	inactive: > 76.9 µM
CCCn1nc(C(=O)N2CC(=O)Nc3ccccc32)c2ccccc2c1=O	inactive: > 76.9 µM
c1ccc(-n2ncc3c2ncn2nc(-c4ccco4)nc32)cc1	inactive: > 76.9 µM
CN(C(=O)C1CCN(S(=O)(=O)c2cccs2)CC1)C1CCCCC1	active: 12.6 µM
CC1CC(C)(C)NC(=O)O1 (stereo unspecified)	inactive: > 76.9 µM
O=C(CCCOc1ccccc1)N1CCN(C(=O)c2ccco2)CC1	inactive: > 76.9 µM
Cc1nc(N[C@@H](Cc2c[nH]c3ccccc23)C(=O)O)c2oc3ccccc3c2n1	inactive: > 76.9 µM
COc1ccc(CCn2c(N3CCN(C)CC3)nc3c2c(=O)[nH]c(=O)n3C)cc1	inactive: > 76.9 µM
Cn1c2ccccc2c2ncn(CCCN3CCOCC3)c(=O)c21	inactive: > 76.9 µM
CCCCNC(=O)OCC(CC)NC(=O)OC(C)C (stereo unspecified)	inactive: > 76.9 µM
c1ccc(-c2csc(N3CCN(c4ccccn4)CC3)n2)cc1	inactive: > 76.9 µM
O=C(NCCCN1CCN(c2cccc(Cl)c2)CC1)C1CCC(=O)N1Cc1ccccc1Cl (stereo unspecified)	inactive: > 76.9 µM
COc1ccc(OC)c(C(c2nnnn2C(C)(C)C)N2CCc3ccccc3C2)c1 (stereo unspecified)	inactive
Cc1ccc(N)cc1CN1CCCC1=O	inactive: > 76.9 µM

SMILES	Potency
CCCCCCNC(=O)Cc1nc2nc(C)cc(C)n2n1	inactive: > 76.9 µM
Cn1c(=O)c(=O)n(C)c2cc(S(=O)(=O)N3CCCCCC3)ccc21	inactive: > 76.9 µM
COc1cccc(C2c3c(oc4ccc(Cl)cc4c3=O)C(=O)N2c2cc(C)on2)c1OC (stereo unspecified)	inactive: > 76.9 µM
Cc1ccc2[nH]c(=O)c(CN(Cc3ccco3)C(=O)c3ccncc3)cc2c1	inactive: > 76.9 µM
O=C(NCC(=O)N(Cc1ccc(F)cc1)C(C(=O)NC1CCCC1)c1ccco1)c1ccco1 (stereo unspecified)	inactive: > 76.9 µM
CC1(C)N([O-])C(c2ccccc2)=C[N+](=O)C1(C)C	inactive: > 76.9 µM
O=C(NC1CCCCCCC1)C1=COCCO1	inactive: > 76.9 µM
CC(NS(=O)(=O)c1ccc(CCC(=O)N2CCN(C)CC2)cc1)c1ccccc1 (stereo unspecified)	inactive: > 76.9 µM
CC1=CC(C)=Nc2ccc(C)cc2N1	inactive: > 76.9 µM
COc1ccc(CCNC(=O)c2ccc(CNc3c(N4CCOCC4)c(=O)c3=O)cc2)cc1OC	inactive: > 76.9 µM
COc1ccc(S(=O)(=O)N2CCC(C(=O)N3CCCCC3)CC2)cc1OC	inactive: > 76.9 µM
C/C(N)=C(/C#N)C(=O)CSc1nnc(SCc2ccc(Cl)cc2)s1	inactive: > 76.9 µM
CCOC(=O)CNC(=O)CSc1nnc(-c2ccccc2)n1Cc1ccco1	inactive: > 76.9 µM
Brc1ccc2[nH]ncc2c1	inactive: > 76.9 µM
[O-]/[N+](=C\c1ccccc1)[C@@H]1CCCC[C@@H]1/[N+]([O-])=C/c1ccccc1	inactive: > 76.9 µM
O=S(=O)(c1cc(Cl)ccc1Cl)N1CCCCC1	inactive: > 76.9 µM
Nc1nonc1-c1nc2ccccc2n1CC(=O)NC1CCCC1	inactive: > 76.9 µM
O=C1CCCC2=C1C(c1cccs1)n1nc(SCc3ccccc3)nc1N2 (stereo unspecified)	inactive: > 76.9 µM
CCOC(=O)C1CCCN(c2nnnn2-c2ccccc2)C1 (stereo unspecified)	inactive: > 76.9 µM
O=C(Nc1ccc(Oc2ccccc2)cc1)C1CCN(c2ncccn2)CC1	inactive: > 76.9 µM
Cc1ccccc1NC(=O)CC1SCCNC1=O (stereo unspecified)	inactive: > 76.9 µM
COc1ccc(-n2c(SCC(=O)Nc3cc(C)on3)nc3ccc(O)cc3c2=O)cc1OC	inactive: > 76.9 µM
COc1ccc(Cl)cc1S(=O)(=O)N1CCN(C(=O)c2ccco2)CC1	inactive: > 76.9 µM

SMILES	Potency
Cc1c(C(=O)c2no[n+]([O-])c2C(=O)c2cnn(C)c2C)cnn1C	inactive: > 76.9 µM
Clc1ccc(-c2nnc(-c3ccccc3)o2)c(Cl)c1	inactive: > 76.9 µM
CCS(=O)(=O)N1CCCC(C(=O)NCC2CCCO2)C1 (stereo unspecified)	inactive: > 76.9 µM
Cc1c(NC(=O)COC(=O)C2CC3C=CC2C3)c(=O)n(-c2ccccc2)n1C (stereo unspecified)	inactive: > 76.9 µM
CCCS(=O)(=O)N1CCC(C(=O)N2CCN(Cc3ccccc3)CC2)CC1	inactive: > 76.9 µM
COc1cccc(OC)c1C(=O)Nc1ccc(CN2CCOCC2)cc1	inactive: > 76.9 µM
CC(C)OC(=O)c1c(N)sc2c1CCCC2	inactive: > 76.9 µM
COc1ccc(S(=O)(=O)N(C)CC(=O)NCCC2=CCCCC2)cc1	inactive: > 76.9 µM
CCSc1ncc(Cl)c(C(=O)Nc2ccc(S(=O)(=O)Nc3onc(C)c3C)cc2)n1	inactive: > 76.9 µM
O=C(Nc1c(F)cc(F)cc1Br)c1cccnc1	inactive: > 76.9 µM
CNC(=O)N(c1ccccc1)c1ccccc1	inactive: > 76.9 µM
COc1cccc(-n2ccnc2SCC(=O)N2CCc3ccccc32)c1	inactive: > 76.9 µM
COc1cc(COCC(O)CN2CCOCC2)cc(OC)c1OC (stereo unspecified)	inactive: > 76.9 µM
Cn1c(=O)c(=O)n(C)c2cc(S(=O)(=O)Nc3ccc4c(c3)OCCO4)ccc21	inactive: > 76.9 µM
CC(C)(C)NC(=O)CSc1nnc(C2CC2)n1Cc1ccccc1	inactive: > 76.9 µM
COC(=O)CN(C(=O)CSc1nnc(-c2cccc(OC)c2)o1)c1ccc(OC)cc1	inactive: > 76.9 µM
CC(=O)NC1(c2cccc(F)c2)CCN(CC(=O)NC2CCCCC2)CC1	inactive: > 76.9 µM
CCCn1c(SCC(=O)Nc2ccccc2C(=O)OC)nc2c1c(=O)n(C)c(=O)n2C	inactive: > 76.9 µM
N#Cc1cc(C(=O)c2cc(Br)ccc2O)cn(C2CC2)c1=O	inactive: > 76.9 µM
Cc1cc(C(F)F)n2nc(C(=O)Nc3ccc(S(=O)(=O)N4CCCC4)cc3)nc2n1	inactive: > 76.9 µM
O=C(C(c1ccccc1)c1ccccc1)N1CCN(CC(O)COc2ccccc2)CC1 (stereo unspecified)	inactive: > 76.9 µM
CCCN1CCN(c2nc3c([nH]2)c(=N)ncn3CC(O)CO)CC1 (stereo unspecified)	inactive: > 76.9 µM
